Results reported in article PMC6212790.
This is one part of the list. At the low end of the ranking, values are background and their order means little.

target: T1, GST-Rok (full length) (UniProt O34857); assay: protein binding microarray; conditions: Rok is a gene silencer of Bacillus subtilis; high values mean tight binding; most listed sequences are background and not binding sites; double strand, one strand shown;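 also: rank score from −0.5 (least bound) to 0.5 (best bound)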
T1 sequence: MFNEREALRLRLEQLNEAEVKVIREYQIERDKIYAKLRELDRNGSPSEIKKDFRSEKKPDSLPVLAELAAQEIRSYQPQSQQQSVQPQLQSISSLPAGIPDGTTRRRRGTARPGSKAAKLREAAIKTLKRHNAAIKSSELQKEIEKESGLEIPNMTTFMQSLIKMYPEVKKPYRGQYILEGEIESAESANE

Sequence | binding signal [E-score]
TAAGGTGA | -0.0719
AATCGCCA | 0.0424
ATTTGTGG | 0.111
GCTACCCA | -0.0944
AACATCCG | -0.00657
AACACTAT | 0.259
ATACGTAA | 0.323
ACTCGACA | -0.00791
AGTTTGGG | -0.00909
CGCCGACA | -0.0606
TCCGGACA | -0.14
GGTCCCGA | -0.0815
AAAAAAGA | -0.0517
CCCGGAAC | -0.25
CCCTCTTA | -0.246
GTACCGTA | 0.149
CAAGCTGG | -0.295
CGTCCCAC | -0.0484
CCAACTAA | 0.178
CACGTGCG | -0.102
AATCATCA | 0.11
CTCCCGCA | -0.274
GTATTTCA | 0.187
CCTTGGTA | -0.186
TGGCCGAA | -0.123

Sequence | binding signal [E-score]
CAACACGA | -0.164
AGTTCGGC | 0.0497
CCCATCTC | -0.264
CAATGTCG | -0.0271
CCTCGTAG | -0.0355
ACTTGAGC | 0.0826
CCTTCGCC | -0.245
CACGGTTC | -0.189
GCCCGTTA | -0.231
CAATAGTC | 0.101
ATGGTGGA | -0.0265
CTCCGCGC | -0.218
AGAGGCCC | -0.331
GGTCGAAC | -0.135
CGGTGAGC | -0.281
ACCGTGAG | -0.0381
CACCTCAC | -0.0372
CCAAGGCG | -0.401
CCGGCGGA | -0.365
TCAACAAA | 0.00449
AAGTGTAT | 0.255
CTAGCGAG | -0.000369
CCTTTAGA | -0.161
GACTCGCC | -0.337
GGAGTACC | -0.17

Sequence | binding signal [E-score]
ACGTATTC | 0.104
ACCGCTCT | -0.204
CGATTCAA | 0.0363
ACTCCAGG | -0.338
TAGGGACA | -0.214
GCTTCCAA | -0.0659
ATGAGCAC | 0.0381
AGTTTCTG | 0.134
CATATATG | 0.343
ATCTCCCA | -0.0952
CGGTTGCA | -0.077
GTAGATGA | 0.255
ATGTACTG | 0.196
TGCGGAAA | 0.21
AAATACGC | 0.0877
CATACATG | 0.143
GTAGGAAC | 0.0415
GTTCAGTA | 0.245
GCTACTCC | -0.125
AGAACTAA | 0.254
CTCGTCTA | -0.0969
AAGATCGT | 0.0466
ACCCCTTC | -0.369
CAGAACTA | 0.301
GGTCCCAC | -0.289

Sequence | binding signal [E-score]
CTGCCCTA | -0.179
CCCCAAGC | -0.236
AAGGGCGA | -0.167
CAATCTCA | 0.0216
CATGGATA | 0.0452
GGTCCAAC | -0.199
AGGACACC | -0.188
TCCAACGA | -0.106
TGGGTCAA | 0.0132
AAAAGACA | 0.114
GACGACTA | 0.172
GTGAGAAA | 0.118
AACAAGAA | 0.0112
ACATAGAC | 0.0568
CTCGGCAC | -0.15
GCGTCCCA | -0.293
CCTCTCAA | -0.193
AACTACAA | 0.34
CCCCTACA | -0.143
GGATAAAA | 0.144
CGATCCGA | -0.0947
GTCGAGGA | -0.127
GAACATCA | 0.0639
CACTTCAC | -0.0206
CATGGCTA | -0.0494

Sequence | binding signal [E-score]
AGTTAGAG | 0.182
AAGCCCGC | -0.256
GGGTCCAC | -0.266
CCATCCGA | -0.117
ACCGACAC | 0.0508
ATGAGGTC | -0.181
CATCCCAC | -0.223
CGGGGATA | -0.022
GGCCCAAA | -0.215
CCTCACTC | -0.184
CACAGTAC | -0.0633
CGTCGCAC | -0.16
AATGTACA | 0.347
ATACGCAA | 0.272
CCTGTCCC | -0.133
AAGCGAAG | 0.00699
GCGTGACA | -0.265
CTAGAGAA | 0.193
TGCTGCCA | -0.196
GGGATCTA | 0.262
CATCTGGC | -0.164
ACACTCAG | 0.0129
AATGAGTG | 0.0141
AAAATGAT | 0.171
GACACCAA | -0.0592

Sequence | binding signal [E-score]
ATCATGAG | -0.129
GGCTCGAA | -0.106
CTTCGACC | -0.228
CATGGGGG | -0.307
GGCCTAAC | -0.306
AAGGCTCA | -0.344
CACCAGAG | -0.0905
CTATCACC | 0.184
GAAGAAGC | -0.267
ACTGTCGA | 0.0777
CCTATACC | 0.171
CCTCCTAC | -0.245
CACCGAAC | -0.239
AGGGTATC | -0.186
CGTGACGC | -0.15
ATGAGCGG | -0.167
CGAAATGA | -0.0356
CCTTAATC | -0.174
ACAATGCT | -0.0851
ATTTAGGC | -0.0308
GCACTCGC | -0.41
AGTTGAAC | 0.0051
ACGGGTCT | -0.138
AACCTAGA | 0.0843
GACGGCGC | -0.366

Sequence | binding signal [E-score]
AATTTCCC | -0.000701
CATGAAAG | -0.0701
ATTCGGCG | -0.154
ACGCAGGA | -0.179
CCTGACAC | -0.294
CGAAGAGC | -0.117
CGAACAAG | -0.0546
AATTTCGG | 0.0359
CGTATACA | 0.227
TACAATCA | 0.157
CGATAGAG | -0.134
GCAAATGA | 0.0997
CGTGACCC | -0.282
ATAGTACA | 0.332
AGACCTAT | 0.0658
TACGCTAA | 0.181
CCTACGAA | 0.131
GGCTTATA | 0.0718
ACGACCTA | 0.0968
CGGCGTAC | -0.0917
AAGCTGCA | -0.106
AATACCGG | 0.193
